Source: PubChem BioAssay AID686978 (National Center for Advancing Translational Sciences (NCATS), 2013)
The campaign covered roughly 420,000 compounds. About 64,000 (15%) were called active. The inconclusive results got no clear call from the source; some entries with a clear call stand among them for comparison. Calls follow the shape of the dose curve; as a rule, active = well fitted inhibition curve with a large enough effect; inconclusive = small, poorly fitted or top-dose-only effect; inactive = flat fitted curve, though single readings scatter. No potency is given beside an inconclusive call; the fits are too rough.

Assay: qHTS for Inhibitors of human tyrosyl-DNA phosphodiesterase 1 (TDP1): qHTS in cells in absence of CPT; also: nearly all actives have a fitted effect of over 55% in size
Settings: DT40 Tdp1-/- hTDP1 cells, no CPT, ATP luminescence, 48 h; activity change, negative = growth inhibition: at 46.2 µM (top of the series) unless noted
How it was run: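 Cells were dispensed at 400 per well, compounds added by pin tool, plates incubated ≥48 hr at 37 °C, then CellTiter-Glo added for 30 min at room temperature before luminescence reading. Line: DT40 Tdp1-/- complemented with hTDP1; camptothecin omitted.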
% is scaled to controls: 0 for no effect and ±100 for the full control effect; potency is read from the fitted curve at half-maximal effect; tags tell the direction and shape of the fitted curve.

| SMILES | Potency | activity change, negative = growth inhibition |
| --- | --- | --- |
| CC(C)c1ccc(C(=O)Nc2ccc(CN3CCOCC3)cc2)cc1 | inconclusive [inhibitor, single point] |  |
| CCCSCCCNC(=O)c1ccc2c(c1)sc1nc(-c3ccc(OCC)cc3)cn12 | inconclusive [inhibitor, single point] |  |
| COc1cccc(-c2ncc3ccccn23)c1 | inconclusive [inhibitor, single point] |  |
| CCN(CC)S(=O)(=O)c1ccc(C)c(NC(=O)Cn2cnc3cc([N+](=O)[O-])ccc3c2=O)c1 | inconclusive [inhibitor, single point] |  |
| O=C1NC[C@H](Cc2ccc(O)cc2)N(C[C@@H]2CCCN2C[C@H](Cc2ccc(O)cc2)N2C[C@H](Cc3ccccc3)N(CCc3ccccc3)C(=O)C2=O)C1=O | inconclusive [inhibitor, single point] |  |
| Cc1ccc2cc(CN(C(=O)c3cccc(Cl)c3)c3ccccc3)c(=O)[nH]c2c1 | active: 18.4 µM |  |
| CC(O)(c1cccc(F)c1)c1nc(-c2cccc(C(=O)O)c2)cs1 (configuration not stated) |  | inactive: -1.36% |
| CN(C(=O)CSc1ncnc2sc3c(c12)CCCC3)C1CCS(=O)(=O)C1 (configuration not stated) | inconclusive [inhibitor, single point] |  |
| COc1ccc(OC)c(-c2nc(CN3CCN(C(=O)c4ccco4)CC3)c(C)o2)c1 | inconclusive [inhibitor, single point] |  |
| Fc1ccc(OCc2nc3ccccc3s2)cc1 | inconclusive [inhibitor, single point] |  |
| COc1cc(-c2cc(C(=O)N(C)Cc3ccccc3)c3ccccc3n2)cc(OC)c1OC | active: 14.6 µM |  |
| CS(=O)(=O)Nc1cccc(C2=NN(S(=O)(=O)c3ccccc3)C(c3ccco3)C2)c1 (configuration not stated) |  | inactive: 12.5% |
| CS(=O)(=O)c1ccc(Cl)c(NC(=O)CSc2nc3ccccc3c(=O)n2CCCN2CCOCC2)c1 | inconclusive [inhibitor, single point] |  |
| COc1cccc(CNC(=O)c2cnc(N3CCCCC3)c3ccccc23)c1 | inconclusive [inhibitor, single point] |  |
| O=C(Oc1cccc(/C=N/NC(=O)c2ccccn2)c1)c1ccc([N+](=O)[O-])cc1 |  | inconclusive: -31.9% [inhibitor] |
| CCOc1ccccc1NC(=O)CN(c1ccc(Cl)cc1)S(C)(=O)=O | inconclusive [inhibitor, single point] |  |
| COc1cc(-c2coc3c(C(=O)NCc4ccc(N(C)C)cc4)cccc23)ccc1O | inconclusive [inhibitor, single point] |  |
| CCCc1cc(C(=O)N2CCN(c3ccc(C(F)(F)F)cn3)CC2)sc1C | inconclusive [inhibitor, single point] |  |
| O=C(Nc1ccccc1F)C1CCCN(S(=O)(=O)c2cccc3cccnc23)C1 (configuration not stated) | inconclusive [inhibitor, single point] |  |
| O=C(c1ccco1)N1CCN(CC(=O)N2c3ccccc3CCc3ccccc32)CC1 |  | inactive: 0.565% |
| Cc1onc(-c2ccccc2)c1C(=O)OCC(=O)c1ccccc1 | inconclusive [inhibitor, full curve, poor fit] |  |
| CC1Cc2ccccc2N1C(=O)COC(=O)CSc1ccc(F)cc1 (configuration not stated) |  | inactive: -20.6% |
| CCOc1ccc(CCNC(=O)C(O)c2ccccc2)cc1 (configuration not stated) |  | inactive: -27.6% |

| SMILES | Potency | activity change, negative = growth inhibition |
| --- | --- | --- |
| C#CCOCCOCCOCCNc1nc(N2CCN(C(=O)CCCCCCCCCCNC(=O)Cn3cc(CCCCCN)nn3)CC2)nc(N2CCN(C(=O)CCCCCCCCCCNC(=O)Cn3cc(C[C@@H](C)O)nn3)CC2)n1 | inconclusive [inhibitor, single point] |  |
| COc1ccc(C2/C=C\CN(CC(C)(C)C)CC(=O)N2Cc2ccc(F)cc2)cc1 (configuration not stated) | inconclusive [inhibitor, single point] |  |
| Cc1ccc(C(=O)Nc2ccc3nc(C)sc3c2)o1 | inconclusive [inhibitor, single point] |  |
| CN1c2ccc(Cl)cc2-c2nc(SCC(=O)NCc3ccccc3)ncc2S1(=O)=O | inconclusive [inhibitor, single point] |  |
| Cn1cc(C(=O)Nc2ccc(F)c(F)c2)cn1 | inconclusive [inhibitor, single point] |  |
| c1ccc(-c2nc3ccccc3o2)nc1 |  | inactive: -20.7% |
| N#Cc1cc2c(nc1SCc1cccnc1)CCCCC2 |  | inactive: -23.4% |
| Cc1ccc2cc(CN(CCCN3CCOCC3)C(=O)NC3CCCCC3)c(=O)[nH]c2c1C | inconclusive [inhibitor, partial curve] |  |
| Cc1cccc(N2CCN(C(=O)CCCOc3ccccc3)CC2)c1C | inconclusive [inhibitor, single point] |  |
| O=C1CCCC[C@@H](O)[C@H](O)C[C@H](c2ccccc2)O1 |  | inactive: -18.8% |
| Cc1ccc(OCc2ccc(-c3nc(C#N)c(NCc4ccccc4Cl)o3)o2)cc1 | inconclusive [inhibitor, single point] |  |
| CCNC(=S)N1CCN(Cc2ccccc2)CC1 |  | inactive: 22.8% |
| Cc1cccc(NC2=NC3(CCCCC3)N=C(N)N2)c1 | inconclusive [inhibitor, single point] |  |
| OC(CNCC(c1ccc(Cl)cc1Cl)c1c[nH]c2ccccc12)c1ccccc1 (configuration not stated) | active: 13 µM |  |
| O=C(c1ccc(-n2cncn2)c([N+](=O)[O-])c1)N1CCN(S(=O)(=O)c2ccc(F)c(F)c2)CC1 | inconclusive [inhibitor, single point] |  |
| CC(C)N(CCCNC(=O)Cn1c(=O)c2cccn2c2ccccc21)Cc1ccccc1 |  | inactive: -15.5% |
| CCCCN1CC(N2CCN(Cc3cccc(C)c3)CC2)CS1(=O)=O (configuration not stated) | inconclusive [inhibitor, single point] |  |
| Cc1cccc2c(C(=O)N3CCN(C(=O)c4ccco4)CC3)cc(-c3cccc(Br)c3)nc12 | inconclusive [inhibitor, single point] |  |
| Cc1ccc(Cn2c(C(=O)O)c(CNC3CCCC3)c3ccc(C)cc32)cc1 | inconclusive [inhibitor, single point] |  |
| O=C(NC1CC(=O)N(c2cccc(F)c2)C1)c1cc2ccccc2o1 (configuration not stated) | inconclusive [inhibitor, single point] |  |
| Cc1ccc(S(=O)(=O)NCC(=O)Nc2cccc([N+](=O)[O-])c2)cc1 | inconclusive [inhibitor, single point] |  |
| COc1ccc(C)cc1NC(=O)C(Cc1ccccc1)NS(=O)(=O)c1cccs1 (configuration not stated) | inconclusive [inhibitor, single point] |  |
| Cc1ccsc1C(=O)Nc1cccc(S(=O)(=O)N(C)C)c1 |  | inactive: -17.4% |

| SMILES | Potency | activity change, negative = growth inhibition |
| --- | --- | --- |
| CCC(C(=O)O)N1C(=O)C2CCCCC2C1=O (configuration not stated) |  | inactive: 8.52% |
| Cc1cc(C)cc(-n2c(SCC(N)=O)nc3c([nH]c4ccccc43)c2=O)c1 | inconclusive [inhibitor, single point] |  |
| O=C(Nc1ccccc1C(F)(F)F)N1CCC(CN2CCc3ccccc3C2)CC1 | inconclusive [inhibitor, single point] |  |
| CCc1cc(C(=O)O)c(NC(=O)C(c2ccccc2)c2ccccc2)s1 | inconclusive [inhibitor, single point] |  |
| O=C(CC1(O)C(=O)N(C/C=C/c2ccccc2)c2ccccc21)c1ccccn1 (configuration not stated) | active: 0.891 µM |  |
| CCOc1ccccc1NC(=O)N1CCC(n2nnc3cc(C)ccc32)CC1 | inconclusive [inhibitor, partial curve] |  |
| CCCCn1c(N)c(N(CCOC)C(=O)COC(=O)Cc2cccc(OC)c2)c(=O)[nH]c1=O |  | inactive: -0.992% |
| CCN(CC(=O)Nc1ccccc1OC)C(=O)CSCc1c(C)noc1C |  | inactive: 1.75% |
| CCOC(=O)c1ccc(CN(Cc2ccccc2C)S(=O)(=O)c2ccc(F)c(C)c2)cc1 | inconclusive [inhibitor, single point] |  |
| COCCNC(=S)NN=C1CCC(c2ccccc2)CC1 (configuration not stated) | active: 5.17 µM |  |
| CC1CCCC(C)N1C(=O)COc1ccc([N+](=O)[O-])cc1Cl (configuration not stated) | inconclusive [inhibitor, single point] |  |
| O=C(OCC(=O)N1CCN(S(=O)(=O)c2ccc(Cl)cc2)CC1)C1CC1 |  | inactive: 10.8% |
| CN(C)c1ccc2c(=O)[nH][nH]c(=O)c2c1 |  | inactive: 0.253% |
| CCCCN1C(=O)c2ccc(C(=O)NCCN3C(=O)S/C(=C\c4cccnc4)C3=O)cc2C1=O | inconclusive [inhibitor, single point] |  |
| Cc1ccc2nc(-c3cccc(NC(=O)c4cccc5ccccc45)c3)oc2c1 | inconclusive [inhibitor, single point] |  |
| CC(=O)OC[C@@]12C(=O)[C@@H](O)[C@@H](C)[C@]3(C[C@@H](c4ccoc4)O[C@@H]3OC(C)=O)[C@H]1CCC[C@]21CO1 |  | inactive: 3.95% [at 9.04 µM] |
| COC(=O)C(C)NC(=O)c1cn(-c2ccccc2OC)c(=O)c2ccccc12 (configuration not stated) |  | inactive: -0.194% |
| CCOc1cc(/C=C/C(=O)N(CC)CC(=O)NCc2cccs2)cc(Cl)c1OC | inconclusive [inhibitor, partial curve, poor fit] |  |
| Cn1c(C(=O)N2CCN(c3ccc(F)cc3)CC2)cc2ccccc21 | inconclusive [inhibitor, single point] |  |
| O=c1cc(-c2ccccc2)oc2ccc(O)cc12 | inconclusive [inhibitor, single point] |  |
| Cc1ccc(S(=O)(=O)N(CCC(=O)NCc2ccccc2F)c2ccccc2)cc1 | inconclusive [inhibitor, single point] |  |
